# ± gives the standard deviation of the averaged measurements. Some of the results follow.
# System: PfAP2-I AP2 domain 3 (GST-tagged)
# Experiment: gcPBM binding intensity (ln(normalized median fluorescence intensity)); higher = stronger DNA binding
# How it was run: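 An Agilent 4 × 180k array carrying primer-extended double-stranded 36-bp intergenic genomic probes and negative controls received GST-tagged P. falciparum DNA-binding domains expressed in E. coli, about 25 μg on average, for 1 h. The binding buffer contained 1× PBS, 1% milk, 0.2 mg/ml BSA, 0.5% salmon testes DNA and 0.03% Triton X-100. Binding intensity is the top Masliner-normalised natural-log median intensity across replicate spots of either probe orientation, read after Alexa488 anti-GST antibody staining and a 488 nm scan.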
row,Sequence,gcPBM binding intensity (ln)
1,TTTATAAAATATCTTTCACACATTACTATGTATTAT [CACACA_site5148],7.73 ± 0.55
2,ATAAAAGTTTAATATTGTACGAACATGCGTTTCTAA [XGTACX_site1487],7.62 ± 0.32
3,AAAAAAATATATTCCTAATTTATGATTAAAAGGAAT [CACACA_negctrl_site751],7.18 ± 0.42
4,ATAAATTAAACAAACACACACGTTCTTTTATTTACT [CACACA_site4556],7.84 ± 0.57
5,TTTTTTTTTGGGTGTACACATGAATATATATTTTTT [CACACA_site5254],8.39 ± 0.47
6,AGAATTATATCATGGTGTACTTATTTGTTTATTTCT [XGTACX_site5795],7.91 ± 0.67
7,AAATTTGGTGAAGGATGTACTTTACCTAATACTTGT [XGTACX_site4825],7.67 ± 0.79
8,AAAACAAAAAAATTTTGTACGAAACAATACTGTAAG [XGTACX_site7992],7.53 ± 0.7
9,TATATATATTGTTATTGTACACAAATATAGGAAATA [XGTACX_site7110],8.18 ± 0.83
10,TAAATTTAAAATGACACACACTAAAATTATTTAAGT [CACACA_site4816],7.72 ± 0.52
11,AAATATTCATAGTATACACACATTTATTTATAACCA [CACACA_site6502],7.88 ± 0.52
12,ACCTTTAATATATACACACACATAAAAAAAATATAT [CACACA_site1843],8.66 ± 0.27
13,TAAAAGTATTCCTTTTGTACATATAATGAAAACAAT [XGTACX_site2069],7.77 ± 0.37
14,ATACAATAATATAAATGTACAAATTATATCTTAATT [XGTACX_site6004],7.54 ± 0.4
15,CTATATTTTTAAAAATGTACTTTATAATAAAATACT [XGTACX_site3593],7.83 ± 0.32
16,CTGTTTTTACTAAGTTGTACAAATGATGATACCCTA [XGTACX_site630],8.09 ± 0.36
17,GTATGTATGTATGTATGTACTTATTTATTTATTTAT [XGTACX_site1921],8.88 ± 0.3
18,TAAAATTTACGGTCTTGTTGCGCAACCAACATTGTC [CACACA_negctrl_site1175],8.07 ± 0.79
19,TAATAATAGTAAATATGTACATATATATATATATAG [XGTACX_site4602],7.92 ± 0.42
20,GTTTTTTTTTTTTTGGTGCGTCATTTTCAAAAGAAG [GTGCAC_site9745],9.54 ± 0.18
21,AAAAAAGAAAAGAAATGTACAGAGCTTATCTTTTTA [XGTACX_site5677],7.21 ± 0.71
22,TTTTTTAATTTTACATGTACATACAGGTTTTTTTTT [XGTACX_site4539],7.84 ± 0.58
23,TTCAATTTTACATGTAGTACATAAATTATACACAAA [XGTACX_site4946],8.18 ± 0.2

row,Sequence,gcPBM binding intensity (ln)
1,TTATTCCTATTTGGATGTACATTTTAATATAAACAT [XGTACX_site4386],8 ± 0.52
2,ATTAATAAATAAATGACACACACACCCACAAAAAAA [CACACA_site8839],8.42 ± 0.028
3,AATGATAAAAATAAATGTACAGAATGATATTTTTTT [XGTACX_site5976],7.62 ± 0.61
4,AAAAAATTGTTTCCCTGTACTCAAAAAAAAAAAAAA [XGTACX_site8070],8.09 ± 0.6
5,TAATTTTTATTCAGTTCACACACGCTTTAATATTAT [CACACA_site9147],7.76 ± 0.72
6,AAAAAATATACATATTGTACATTTTTTATTAACACA [XGTACX_site6415],7.62 ± 0.32
7,ATAAATTTACATTTTTTTTTTTTTTTTTTTTTTTTT [GTGCAC_negctrl_site689],9.8
8,GTATAGTACAAATAAGTGCATATAAAAGAAATACAG,10.4 ± 0.24
9,ATTACCAAAAAAAGGTGTACAAATATAATTATGAAA [XGTACX_site44],8.22 ± 0.61
10,ATTTTTTTTCGTAATTGTTCTTAATGTTGAATTATA [CACACA_negctrl_site1135],7.68 ± 0.64
11,TTTTCCTTTCACAATGGTACACAAATATACATGCAA [XGTACX_site7244],8.06 ± 0.47
12,TAGTAATATGTATCCATACACACATACATTTTATTT [CACACA_site873],7.61 ± 0.55
13,CAATTTATAAAGAAAACACACATATACCTATATACA [CACACA_site6710],7.59 ± 0.52
14,TACACGCATAAACACACACACACACCCATATATATA [CACACA_site8114],8.34 ± 0.68
15,TTTATATTTAAAGAAACATGCATTTATCATATATAC [TGCATGCA_site173],7.64 ± 0.67
16,TTTGTTGACGAACACACACACATACATATTTATATA [CACACA_site7141],7.86 ± 0.49
17,AAAAAAATAAAATACAAAATGGCTATACAAAATAAA [GTGCAC_negctrl_site535],7.73 ± 0.68
18,TCTATAATATTTTTCACACACCATTTCCTTAAACAC [CACACA_site6747],8.26 ± 0.26
19,ATTTTTTTATTTTGAAGTACATAAACTTTATATATA [XGTACX_site1746],7.99 ± 0.43
20,ATTACATATGTCGCTTGTACGCATAATTTTTTTATA [XGTACX_site5782],8.04 ± 0.48
21,ATTTAAAAAAAAAGACGTACATTTATATAGAATCCT [XGTACX_site6457],8.01 ± 0.45
22,TTATTCATACAATATCGTACATATATATATATATAT [XGTACX_site1185],9.47 ± 0.33
23,TCTAATCTGGAGAAAAGTACATAGTATCTGGTAACA [XGTACX_site2540],7.68 ± 0.68

row,Sequence,gcPBM binding intensity (ln)
1,GTACACCTATAATATACACACAACAAATATGCACAT [CACACA_site6603],9.64 ± 0.39
2,ATTATATATATATATACACACACATATATATATATA [CACACA_site8373],9.33 ± 0.67
3,ATCTTATATATATGTGTGCACGTATATATAAGCAAT [GTGCAC_site9933],10.7 ± 0.32
4,TTATAAATAAAAAGAGTGCAATTATAAATATATATA,10.1 ± 0.23
5,AAATAAAATATGAACAGTACTTTTGATATAACCATT [XGTACX_site1873],7.74 ± 0.64
6,AAAAAAATACAAATATGTACACATATATATTTAAAA [XGTACX_site4729],7.62 ± 0.2
7,GGAATAACCGGACACACACACACATATATATATATA [CACACA_site5874],9.31 ± 0.19
8,ACATAATATATATATTGTACAAATATATTATTGTTA [XGTACX_site3385],7.69 ± 0.42
9,AAAAAATTATATAATAATAGAACTATACATTTTATT [GTGCAC_negctrl_site645],7.31 ± 0.41
10,AGCCACGGGTTATATACACACATAATCAAATAAAAT [CACACA_site6117],7.79 ± 0.45
11,ATTTTTAATGGATAAGTGCATAATATTATGATGCAA,10.9 ± 0.64
12,TATGTAATAAAATATACACACAATATACTTATATAT [CACACA_site3682],7.53 ± 0.55
13,AGAAAGATGCAAGAAACATGCAAAAAAAAAATTTCT [TGCATGCA_site725],7.85 ± 1
14,TGTATTCCTTTTTATAGTACAATTTAAAAGTATAAA [XGTACX_site2045],7.89 ± 0.16
15,CACAAATATACAAATACACACAAATATACTCATATA [CACACA_site5339],7.46 ± 0.26
16,TACATAAATTAATAGTCACACACGTATTTTTTATAT [CACACA_site8806],7.57 ± 0.52
17,TAGTTCCTCAAAAATTTCCTTTGTCATTTTATTCAC [GTGCAC_negctrl_site20],7.6 ± 0.83
18,GTTATACAAAATAATACATGCATGTCCTACATATAT [TGCATGCA_site320],8.21 ± 0.24
19,TAAAGAAATTCTTCATGTACTTATTATTTCTCTTTT [XGTACX_site6817],7.66 ± 0.61
20,TATGGAATAAATTTATCCATACATCTTATAACATAT [XGTACX_negctrl_site500],7.68 ± 0.47
21,AGCTATATAAATAATACATGCATTGTTCAGGTATTT [TGCATGCA_site964],7.68 ± 0.55
22,ATTTATAATATTCAAGTGCATATATATTTTTTACTT,9.57 ± 0.14
23,TACATAAAATATATCACACATATAATATATATATAT [CACACA_site5834],8.8 ± 0.13

row,Sequence,gcPBM binding intensity (ln)
1,AAAAAAAAAAAAAAATATAAATATATATATATATAT [GTGCAC_negctrl_site28],9.27 ± 0.23
2,TATGTATTAAATTTTACACACATGATTCTCTATATA [CACACA_site2298],7.63 ± 0.4
3,AATTAAATATTATAAACACACATATATATTATTTTT [CACACA_site865],7.5 ± 0.42
4,AAACGAACATATAAATGTACATATATATACATATAT [XGTACX_site8086],7.83 ± 0.43
5,TACAAAAAAAATGTATTTAGGACATATATATGTTTA [XGTACX_negctrl_site455],7.24 ± 0.36
6,ATTGTAAATATAGAAGTGCAAAAGGGTATGAAATGA,10.07 ± 0.021
7,TATATAAAATAATAATGTACTCATTAAAATTATAGA [XGTACX_site4507],7.535 ± 0.064
8,ATGTATCCAATAGGAGTGCATAATTCTATTAACACC,10.7 ± 0.59
9,AAAGAAAAAAAAAAAAAAAAAAAAAAAATTATACAT [CACACA_negctrl_site7],7.35 ± 0.45
10,ATATATATATATATATGTACATATATTCGATTATTA [XGTACX_site557],9.49 ± 0.6
11,ATAATATTTCTTACCTTTGGATGTTCTAATTTTTTT [CACACA_negctrl_site1317],7.79 ± 0.86
12,GAATTTCGATATATGTGTACGCATTTGTATTATAGG [XGTACX_site6332],7.94 ± 0.52
13,TACATATTGCACAAATAAAAAAGAACAAAAAAAAAA [CACACA_negctrl_site1200],10.7 ± 0.79
14,AAAAATAACATATAAACACACATATATATATATATA [CACACA_site3802],9.31 ± 0.35
15,TACTTTATATTATATATATATATATATATATATATA [CACACA_negctrl_site1765],9.14 ± 0.61
16,AATAATAATTTGAATACACACAATAATATATATATA [CACACA_site2059],8.95 ± 0.092
17,ATACAAAAAATCACATGTACATATTCTTAAATGGTA [XGTACX_site8502],8.02 ± 0.4
18,TACCTTTCTTATTATTGAAAAGGAATATATAAATAG [CACACA_negctrl_site272],7.64 ± 0.49
19,TTATATCATTTTCCTGCACACATAAATTTATATAAT [CACACA_site8257],9.24 ± 0.49
20,ACAAAATATACAAAATGTACAAAATATACAAAATGT [XGTACX_site6467],7.58 ± 0.49
